Results on four molecules are retold here after PMC4417169, “Significance of ligand interactions involving Hop2-Mnd1 and the RAD51 and DMC1 recombinases in homologous DNA repair and XX ovarian dysgenesis” (Nucleic Acids Research, 2015).

By UniProt entry, the sequences of proteins in these tests, tags left out.
UniProt P0A7G6: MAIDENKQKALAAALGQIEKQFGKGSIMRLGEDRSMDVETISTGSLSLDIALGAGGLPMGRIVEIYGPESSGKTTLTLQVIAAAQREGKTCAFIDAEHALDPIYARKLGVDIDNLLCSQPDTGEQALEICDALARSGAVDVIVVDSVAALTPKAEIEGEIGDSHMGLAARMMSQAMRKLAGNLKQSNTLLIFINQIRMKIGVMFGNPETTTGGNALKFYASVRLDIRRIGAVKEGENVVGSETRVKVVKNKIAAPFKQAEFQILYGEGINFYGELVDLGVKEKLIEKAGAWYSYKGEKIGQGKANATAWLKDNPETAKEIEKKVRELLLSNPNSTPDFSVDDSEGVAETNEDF
UniProt P25454: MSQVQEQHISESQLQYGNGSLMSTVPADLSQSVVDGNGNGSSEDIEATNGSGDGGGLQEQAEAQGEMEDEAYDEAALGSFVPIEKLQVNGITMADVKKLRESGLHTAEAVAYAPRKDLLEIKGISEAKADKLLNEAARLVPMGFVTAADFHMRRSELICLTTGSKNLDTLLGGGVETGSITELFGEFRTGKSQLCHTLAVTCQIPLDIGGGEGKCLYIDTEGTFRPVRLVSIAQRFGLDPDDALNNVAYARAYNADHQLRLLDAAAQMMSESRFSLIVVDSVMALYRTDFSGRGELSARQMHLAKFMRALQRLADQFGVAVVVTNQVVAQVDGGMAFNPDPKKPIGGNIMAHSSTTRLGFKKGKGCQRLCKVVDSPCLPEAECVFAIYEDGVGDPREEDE

The target in one assay is T1, (His)6-Hop2-Mnd1 (mouse) (UniProt O35047+Q8K396).
T1 sequence 1: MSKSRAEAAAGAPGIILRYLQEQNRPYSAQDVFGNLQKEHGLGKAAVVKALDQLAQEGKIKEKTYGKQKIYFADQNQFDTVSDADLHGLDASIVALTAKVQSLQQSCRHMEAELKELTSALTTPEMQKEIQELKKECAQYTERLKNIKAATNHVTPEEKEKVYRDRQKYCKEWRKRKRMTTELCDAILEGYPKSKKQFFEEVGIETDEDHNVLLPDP
T1 sequence 2: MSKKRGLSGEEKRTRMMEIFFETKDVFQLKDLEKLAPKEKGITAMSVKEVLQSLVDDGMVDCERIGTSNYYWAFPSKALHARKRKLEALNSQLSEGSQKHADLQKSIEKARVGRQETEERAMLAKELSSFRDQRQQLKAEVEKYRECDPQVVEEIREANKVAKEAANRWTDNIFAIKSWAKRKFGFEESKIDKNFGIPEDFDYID
The assay can be described thus: pull-down; Ni2+-NTA resin captures (His)6-Hop2-Mnd1 or (His)6-Mnd1 (5 uM) incubated with RAD51 (8 uM); buffer A (25 mM Tris-HCl pH 7.5, 10% glycerol, 0.5 mM EDTA, 0.01% Igepal, 10 mM imidazole), 50-250 mM KCl, with or without 2 mM MgCl2 and 2 mM ATP (or other nucleotides); 4 C; SDS-PAGE, Coomassie; both purified.

The target of assay [1] is T2, Hop2 (yeast two-hybrid fusion) (mouse) (UniProt O35047).
T2 sequence: T1 sequence 1
The assay can be described thus: two-hybrid; yeast two-hybrid, pBridge (BD) and pGADT7 (AD) in strain AH109; growth on Leu-Trp-His- and Leu-Trp-His-Ade- media.

Assay [2] has as its target T3, Mnd1 (yeast two-hybrid fusion) (mouse) (UniProt Q8K396).
T3 sequence: T1 sequence 2
The description is as above.

Assay [3] deals with T4, Hop2 (G203N)-Mnd1, yeast three-hybrid (mouse) (UniProt O35047+Q8K396).
T4 sequence 1: T1 sequence 1 with G203N
T4 sequence 2: T1 sequence 2
The experiment in a line: two-hybrid; yeast three-hybrid: BD fusion and a third protein from pBridge, AD fusion from pGADT7, strain AH109; growth on Leu-Trp-His- and Leu-Trp-His-Ade- media.

Assay [4] has as its target T5, Hop2 (K193A/K195A/K196A)-Mnd1, yeast three-hybrid (mouse) (UniProt O35047+Q8K396).
T5 sequence 1: T1 sequence 1 with K193A, K195A, K196A
T5 sequence 2: T1 sequence 2
The description is as above.

The target in assay [5] is T6, Hop2 (V212Q)-Mnd1, yeast three-hybrid (mouse) (UniProt O35047+Q8K396).
T6 sequence 1: T1 sequence 1 with V212Q
T6 sequence 2: T1 sequence 2
The description is as above.

Assay [6] deals with T7, Hop2-Mnd1 co-expressed in the yeast three-hybrid system (mouse) (UniProt O35047+Q8K396).
T7 sequence 1: T1 sequence 1
T7 sequence 2: T1 sequence 2
The assay is described as above.

Assay [7] deals with T8, Hop2-Mnd1 (F195A/I197Q/F201A), MBP-tagged (mouse) (UniProt O35047+Q8K396).
T8 sequence 1: T1 sequence 1
T8 sequence 2: T1 sequence 2 with F195A, I197Q, F201A
The experiment in a line: pull-down; amylose resin captures MBP-tagged Hop2-Mnd1 or mutant incubated with RAD51 or DMC1; buffer A without imidazole; 4 C; SDS-PAGE, Coomassie; both purified.

Positions count from the first letter of the chain named. These are yes or no findings as the source states them, for the method shown. Some entries that bind do so weakly or less than the wild type. For part of these data: Where a sequence is shown, tags or fusion partners need not be part of it.

With “E. coli RecA (from UniProt P0A7G6 1-353)”, the binding entry with (His)6-Hop2-Mnd1 (mouse) is “no binding”.
Consider “RAD51 (yeast two- and three-hybrid fusion) (from UniProt Q06609 1-339)”, for which the binding entry in assay [1] is “no binding”; in assay [2], “binds”; in assay [3], “binds”; in assay [4], “binds”; in assay [5], “binds”; in assay [6] it was “binds”.
Take “S. cerevisiae Rad51 (from UniProt P25454 1-400)”: the binding entry in the assay with (His)6-Hop2-Mnd1 (mouse) is reported as “no binding”.

B1: human RAD51 (natural protein, UniProt Q06609 1-339, looked up)
chain: MAMQMQLEANADTSVEEESFGPQPISRLEQCGINANDVKKLEEAGFHTVEAVAYAPKKELINIKGISEAKADKILAEAAKLVPMGFTTATEFHQRRSEIIQITTGSKELDKLLQGGIETGSITEMFGEFRTGKTQICHTLAVTCQLPIDRGGGEGKAMYIDTEGTFRPERLLAVAERYGLSGSDVLDNVAYARAFNTDHQTQLLYQASAMMVESRYALLIVDSATALYRTDYSGRGELSARQMHLARFLRMLLRLADEFGVAVVITNQVVAQVDGAAMFAADPKKPIGGNIIAHASTTRLYLRKGRGETRICKIYDSPCLPEAEAMFAINADGVGDAKD
notes: RAD51, human; source: E. coli, purified
As for B1, in assay [7], the binding entry is given as “no binding”.
